Among all 360,000 compounds or so, about 16,000 (4.4%) were called active. Inconclusive results, whose numbers are uncertain, are shown with a selection of clear calls. Calls follow the shape of the dose curve; as a rule, active = well fitted inhibition curve with a large enough effect; inconclusive = small, poorly fitted or top-dose-only effect; inactive = no such curve, though single readings can be large or run the other way. Potencies of inconclusive entries are doubtful fits and often do not repeat. More than one record can exist for a structure, and the calls need not agree.
These compounds were tested against Bromodomain adjacent to zinc finger domain protein 2B (Homo sapiens) (UniProt Q9UIF8) (assay: qHTS Assay for Inhibitors of BAZ2B). Details: AlphaScreen BAZ2B-H3K14Ac peptide displacement; series mostly up to 114 µM.
Method in brief: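 Inhibition is scored as reduced AlphaScreen emission. The BAZ2B/b-H3(5-23)K14Ac complex (50 nM each) in PBS pH 7.4, 0.01% Tween-20 meets compound (up to 110 uM) for 30 min at RT before bead addition.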
Also: nearly all actives have a fitted effect of over 60% in size.
Potency is read from the fitted curve at half-maximal effect; tags tell the direction and shape of the fitted curve.

Chain of UniProt Q9UIF8 (Q9UIF8 whole entry, looked up, the tested form may be a part): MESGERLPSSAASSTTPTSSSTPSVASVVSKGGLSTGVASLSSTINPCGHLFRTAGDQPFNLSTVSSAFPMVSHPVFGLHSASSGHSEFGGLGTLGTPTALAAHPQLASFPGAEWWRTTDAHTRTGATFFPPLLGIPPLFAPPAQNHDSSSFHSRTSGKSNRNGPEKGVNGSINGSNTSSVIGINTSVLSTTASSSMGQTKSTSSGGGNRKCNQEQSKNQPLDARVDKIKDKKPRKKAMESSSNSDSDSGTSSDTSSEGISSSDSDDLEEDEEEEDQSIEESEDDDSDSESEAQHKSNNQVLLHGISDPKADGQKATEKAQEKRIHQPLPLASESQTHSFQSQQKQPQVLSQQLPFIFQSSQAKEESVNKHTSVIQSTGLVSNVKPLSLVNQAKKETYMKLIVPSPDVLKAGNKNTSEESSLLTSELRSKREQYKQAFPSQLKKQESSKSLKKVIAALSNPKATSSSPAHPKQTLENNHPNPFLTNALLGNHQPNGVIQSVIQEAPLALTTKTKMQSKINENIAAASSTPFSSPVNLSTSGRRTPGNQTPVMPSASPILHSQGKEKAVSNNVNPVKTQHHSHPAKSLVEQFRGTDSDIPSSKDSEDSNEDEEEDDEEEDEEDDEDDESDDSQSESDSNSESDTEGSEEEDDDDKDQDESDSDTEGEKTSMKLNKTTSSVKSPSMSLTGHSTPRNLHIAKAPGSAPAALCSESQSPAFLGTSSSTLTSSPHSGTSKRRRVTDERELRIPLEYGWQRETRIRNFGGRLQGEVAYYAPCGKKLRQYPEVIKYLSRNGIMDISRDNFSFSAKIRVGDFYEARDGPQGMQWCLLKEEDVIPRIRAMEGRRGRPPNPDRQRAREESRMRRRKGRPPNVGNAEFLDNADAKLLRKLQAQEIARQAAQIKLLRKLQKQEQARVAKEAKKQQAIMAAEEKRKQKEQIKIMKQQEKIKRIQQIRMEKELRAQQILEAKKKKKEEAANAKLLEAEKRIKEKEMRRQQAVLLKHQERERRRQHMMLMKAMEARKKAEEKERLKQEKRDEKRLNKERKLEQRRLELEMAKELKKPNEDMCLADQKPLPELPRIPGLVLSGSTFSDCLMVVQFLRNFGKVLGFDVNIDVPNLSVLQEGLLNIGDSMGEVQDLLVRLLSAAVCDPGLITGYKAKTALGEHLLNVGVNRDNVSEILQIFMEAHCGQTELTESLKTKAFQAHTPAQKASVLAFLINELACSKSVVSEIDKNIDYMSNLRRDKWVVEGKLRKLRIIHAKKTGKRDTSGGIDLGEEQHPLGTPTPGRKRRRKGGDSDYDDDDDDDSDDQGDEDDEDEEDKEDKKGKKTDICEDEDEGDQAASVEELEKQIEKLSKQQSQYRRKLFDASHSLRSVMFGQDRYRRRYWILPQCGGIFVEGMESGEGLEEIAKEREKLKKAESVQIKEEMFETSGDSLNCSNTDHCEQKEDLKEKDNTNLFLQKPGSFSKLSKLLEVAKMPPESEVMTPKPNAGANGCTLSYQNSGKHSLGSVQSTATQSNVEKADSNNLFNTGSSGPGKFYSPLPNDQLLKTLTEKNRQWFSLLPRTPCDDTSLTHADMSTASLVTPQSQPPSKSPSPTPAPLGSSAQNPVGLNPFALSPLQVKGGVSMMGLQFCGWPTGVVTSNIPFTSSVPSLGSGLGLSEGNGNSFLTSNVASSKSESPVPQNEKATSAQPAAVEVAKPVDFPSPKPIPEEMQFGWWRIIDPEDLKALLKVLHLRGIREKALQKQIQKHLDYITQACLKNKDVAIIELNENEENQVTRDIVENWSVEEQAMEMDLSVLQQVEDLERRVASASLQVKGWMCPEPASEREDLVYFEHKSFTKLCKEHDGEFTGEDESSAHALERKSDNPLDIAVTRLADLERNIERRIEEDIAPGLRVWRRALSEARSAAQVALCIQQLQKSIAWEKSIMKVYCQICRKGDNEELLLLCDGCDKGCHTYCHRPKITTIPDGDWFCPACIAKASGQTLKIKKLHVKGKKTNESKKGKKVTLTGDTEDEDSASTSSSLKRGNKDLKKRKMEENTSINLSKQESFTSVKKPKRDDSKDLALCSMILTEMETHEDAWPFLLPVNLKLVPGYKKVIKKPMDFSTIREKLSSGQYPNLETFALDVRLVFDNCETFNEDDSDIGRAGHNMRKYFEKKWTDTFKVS

| Structure (SMILES) | Potency |
| --- | --- |
| Cc1[nH]c2ccc(F)cc2c1CCN(Cc1cccnc1)C(=S)Nc1cccc(F)c1 | active: 31.6 µM |
| CCS(=O)(=O)c1ncc(N(Cc2ccccc2)Cc2ccco2)c(C(=O)Nc2ccc(C)c(C)c2)n1 | inconclusive: 79.4 µM [inhibitor, single point] |
| COc1ccc(CCNC(=O)CCCCn2c(=O)c3ccccc3n(Cc3ccccc3C)c2=O)cc1OC | inconclusive: 79.4 µM [inhibitor, single point] |
| CCCN(Cc1ccccc1)C(=S)Nc1ccc(C(C)=O)cc1 | inconclusive: 63.1 µM [inhibitor, partial curve, poor fit] |
| COc1ccc(C2C(C#N)=C(N)Oc3cc(N)ccc32)cc1 (stereo not drawn) | inactive |
| O=c1oc(-c2ccc([N+](=O)[O-])cc2)nc2ccc(O)cc12 | inconclusive: 44.7 µM [inhibitor, partial curve] |
| COc1cc(/C=N/Nc2ccc(F)cc2F)cc(OC)c1O | inconclusive: 50.1 µM [inhibitor, partial curve] |
| CCCCc1nc2cc(C(=O)N3CCCCC3CCNC(C)=O)ccc2o1 (stereo not drawn) | inactive |
| Cc1ccccc1NC(=O)N1CCc2c(sc3c2CCCC3)C1c1ccccc1 (stereo not drawn) | inconclusive: 79.4 µM [inhibitor, partial curve] |
| COC(=O)C1=C(C)N(C)C(=O)NC1c1cc2c(cc1[N+](=O)[O-])OCO2 (stereo not drawn) | active: 50.1 µM |
| Cc1cccc(OCCSc2nc(N)cc(N)n2)c1 | inconclusive: 89.1 µM [inhibitor, single point] |
| N#CC(C#N)=C(N)/C(C#N)=C/c1cc(O)c(O)c(O)c1 | active: 11.2 µM |
| O=C(Nc1cccnc1)c1ccco1 | inconclusive: 7.08 µM [inhibitor, single point] |
| Cc1ccn2cc(CCNS(=O)(=O)c3ccc(F)c(C(F)(F)F)c3)nc2c1 | inconclusive: 89.1 µM [inhibitor, single point] |
| Cc1nn(CC(=O)Nc2ccccc2C(F)(F)F)c(=O)c2cccn12 | active: 22.4 µM |
| COc1ccc(CCNC(=O)Cn2c(=O)nc(-c3ccccc3)c3ccccc32)cc1OC | inactive |
| COc1cc(/C=C/C(=O)O)cc(S(=O)(=O)NCCCC(=O)O)c1OC | inconclusive: 89.1 µM [inhibitor, single point] |
| CCn1c2ccccc2c2cc(NC(=O)N3CCOCC3)ccc21 | inconclusive: 50.1 µM [inhibitor, partial curve] |
| CCOc1ccc(N(CC(=O)NCCSCc2ccco2)S(=O)(=O)c2ccc(F)cc2)cc1 | inconclusive: 28.2 µM [inhibitor, full curve, poor fit] |
| Cc1c(Cc2ccccc2)sc(NC(=O)/C=C/c2cccc3ccccc23)c1C(N)=O | inactive |
| Cc1ccc(-c2nc3cnccn3c2Nc2c(C)cccc2C)o1 | inactive |
| C/C=C(\C)C(=O)NCCN1C2=NC[C@H](Cc3ccc(O)cc3)N2C[C@H]1Cc1ccc(O)cc1 | inconclusive: 79.4 µM [inhibitor, single point] |
| CCn1c(C)c(C)c2cc(C(=O)NCCCN3CCCCC3)ccc21 | active: 39.8 µM |
| CNS(=O)(=O)c1cn(CC(=O)Nc2cccc(OC)c2)cc1S(=O)(=O)NC | inactive |
| Cc1ccc(NC(=O)CSc2ncn[nH]2)cc1C | inconclusive: 89.1 µM [inhibitor, single point] |

| Structure (SMILES) | Potency |
| --- | --- |
| COc1cc(/C=C2\C(=N)N3N=C(S(C)(=O)=O)SC3=NC2=O)ccc1OCCOc1ccccc1C | active: 56.2 µM |
| CC1(C)CC(=O)C2=C(C1)OC(N)=C(C#N)C2C#Cc1ccccc1 (stereo not drawn) | inconclusive: 89.1 µM [inhibitor, single point] |
| COC(=O)c1ccc(-n2c(CCC(=O)O)ccc2-c2ccc(C)cc2)cc1 | active: 44.7 µM |
| CCn1cc(/C=C(\NC(=O)c2ccccc2OC)C(=O)NCCCn2ccnc2)c2ccccc21 | inconclusive: 50.1 µM [inhibitor, partial curve] |
| CCOc1ccc(NCc2cccn2-c2nnc(N3CCC(C(=O)NCCCN4CCCCC4C)CC3)s2)cc1 (stereo not drawn) | inconclusive: 22.4 µM [inhibitor, partial curve] |
| CC(C)(C)OC(=O)N1CCC(NC(=O)c2nc[nH]c2C(=O)N2CCc3ccccc3C2)CC1 | active: 56.2 µM |
| O=C(CSc1nncc2ccccc12)Nc1ccc(C(=O)O)cc1 | inconclusive: 89.1 µM [inhibitor, single point] |
| CC(=O)Nc1nonc1-c1nnc(SCC(=O)Nc2ccccc2)n1-c1ccccc1 | inactive |
| CN1CCN(C2=Cc3cc(Cl)ccc3Sc3cc(F)ccc32)CC1 | active: 22.4 µM |
| CCOc1ccc(CNS(=O)(=O)c2ccc3[nH]c(=O)ccc3c2)cc1 | inactive |
| Cc1ccc(O)c(C(=O)c2cc(C#N)c(=O)n(C(C)c3ccccc3)c2)c1 (stereo not drawn) | inconclusive: 70.8 µM [inhibitor, partial curve] |
| Cc1cc(NCc2ccc3c(c2)OCO3)n2nc(C)nc2n1 | inactive |
| NNC(=O)c1nnn(-c2nonc2N)c1-c1cccs1 | inconclusive: 89.1 µM [inhibitor, single point] |
| CN(C)c1ccc(/C=C(/NC(=O)c2ccccc2)C(=O)N/N=C/c2ccc([N+](=O)[O-])c(O)c2)cc1 | active: 17.8 µM |
| CCCCc1ncc(CN2CCC(n3nccc3NC(=O)c3ccccc3OC)CC2)[nH]1 | inconclusive: 79.4 µM [inhibitor, single point] |
| CNC(=O)c1cc(C(=O)c2ccccc2Br)c[nH]1 | inconclusive: 89.1 µM [inhibitor, single point] |
| Cc1ccc(O)c(C(=O)/C=C/c2ccc3c(c2)OCCO3)c1 | active: 28.2 µM |
| Cc1ccc(OCC(=O)c2cc(C)n(-c3ccccc3)c2C)c([N+](=O)[O-])n1 | inconclusive: 89.1 µM [inhibitor, single point] |
| Cc1ccc(O)c(NC(=O)c2ccc(Br)c(S(=O)(=O)N3CCCCC3)c2)c1 | active: 17.8 µM |
| COc1cc(CC(=O)NCc2ccccn2)cc(OC)c1OC | inactive |
| O=C(O)c1ccc2cccnc2n1 | active: 28.2 µM |
| COC(=O)c1ccc(C(=O)N2CCCC(Nc3ccc(C(C)C)cc3)C2)cc1 (stereo not drawn) | inconclusive: 28.2 µM [inhibitor, single point] |
| Cc1cc2cc(C(c3nnnn3Cc3ccco3)N3CCc4ccccc43)c(=O)[nH]c2cc1C (stereo not drawn) | inconclusive: 39.8 µM [inhibitor, full curve] |
| COC(=O)C1=C(N)Oc2cc(N(C)C)ccc2C1c1ccccc1OC (stereo not drawn) | active: 39.8 µM |
| Cc1cc(=O)n2cccc(O)c2n1 | active: 12.6 µM |

| Structure (SMILES) | Potency |
| --- | --- |
| COc1ccc(CCNC(=O)C2CCN(Cc3nc(-c4ccccc4F)oc3C)CC2)cc1OC | inconclusive: 89.1 µM [inhibitor, single point] |
| Oc1[nH]c2ccccc2c1N=NC(=S)NCCc1ccccc1 | inconclusive: 28.2 µM [inhibitor, full curve] |
| Cc1ccc(-c2nc(N/N=C/c3ccncc3)c3ccccc3n2)cc1 | inconclusive: 7.08 µM [inhibitor, single point] |
| Cc1ccc2c(c1)C(c1ccccc1)N(C(=O)c1ccc3c(c1)OCO3)CC(=O)N2 (stereo not drawn) | inactive |
| O=C(O)COC(=O)C1C(c2ccccc2)C(C(=O)O)C1c1ccccc1 (stereo not drawn) | inconclusive: 89.1 µM [inhibitor, single point] |
| CCCCCCC(C)n1[nH]c(=O)c2c(C)cc(C)nc21 (stereo not drawn) | inactive |
| COc1cc(/C=N/n2c(-c3n[nH]c4c3CCC4)n[nH]c2=S)ccc1O | inactive |
| O=S(=O)(c1ccccc1)c1nc(-c2ccc(Cl)cc2Cl)oc1N1CCCCC1 | inconclusive: 3.98 µM [inhibitor, full curve] |
| CN(C)CCCSc1nc2ccccc2s1 | inconclusive: 70.8 µM [inhibitor, single point] |
| Cc1ccc(N2NC(C)(c3cccs3)NC2=S)cc1 (stereo not drawn) | inconclusive: 50.1 µM [inhibitor, partial curve] |
| CCOC(=O)N1CCN(c2cc(N3CCN(CC)CC3)c(F)cc2[N+](=O)[O-])CC1C (stereo not drawn) | inconclusive: 39.8 µM [inhibitor, full curve] |
| COc1ccc(CN(C)c2ccc(S(=O)(=O)N3CCN(C)CC3)cc2[N+](=O)[O-])cc1OC | inconclusive: 79.4 µM [inhibitor, single point] |
| N#C/C(C(=O)Nc1ccc(Cl)cc1)=C(/S)Nc1ccccc1 | active: 20 µM |
| COc1ccc(C(=O)Oc2c(CN3CCOCC3)cc(Cl)c3cccnc23)cc1 | active: 50.1 µM |
| O=C(O)CCCN1C(=O)/C(=C\C(Cl)=C\c2ccccc2)SC1=S | active: 50.1 µM |
| CC(C)COc1ccc(C(=O)N/N=C/c2ccoc2)cc1 | inconclusive: 1.41 µM [inhibitor, full curve, poor fit] |
| O=C(Nn1cc(C(=O)N2CCN(c3ccccc3F)CC2)c2ccccc2c1=O)c1cnccn1 | active: 28.2 µM |
| N#C/C(=C\c1ccc(OCC(N)=O)cc1)S(=O)(=O)c1ccccc1 | inactive |
| Cc1nc2ccc(S(=O)(=O)N(CC(=O)Nc3cccc(Cl)c3)Cc3ccccc3)cc2s1 | inactive |
| COc1ccc(N2CCN(C(=O)CNC(=O)c3ccco3)CC2)cc1 | inactive |
| CN(CC(=O)O)c1ccc(C(F)(F)F)cc1[N+](=O)[O-] | inconclusive: 89.1 µM [inhibitor, partial curve] |
| COc1ccccc1N1CCN(C(=O)c2ccc(-c3nc4ccccc4s3)o2)CC1 | inconclusive: 31.6 µM [inhibitor, partial curve] |
| COC(=O)c1c(NC(=O)CN2C(=O)C(=O)N(CC(C)C)C2=O)sc(C)c1C | inconclusive: 79.4 µM [inhibitor, single point] |
